# Source: PubChem BioAssay AID1460 (National Center for Advancing Translational Sciences (NCATS), 2008)
# In all, about 270,000 compounds went through this assay and about 5,800 (2.1%) were called active. Inconclusive results, whose numbers are uncertain, are shown with a selection of clear calls. Calls come from the whole dose curve; as a rule, active = well fitted inhibition curve with a large enough effect; inconclusive = small, poorly fitted or top-dose-only effect; inactive = flat fitted curve, though single readings scatter. A potency beside an inconclusive call is a rough fit, not a confirmed value.
# Biological target: Microtubule-associated protein tau (Homo sapiens) (UniProt P10636)
# UniProt P10636, sequence (P10636 whole entry, looked up): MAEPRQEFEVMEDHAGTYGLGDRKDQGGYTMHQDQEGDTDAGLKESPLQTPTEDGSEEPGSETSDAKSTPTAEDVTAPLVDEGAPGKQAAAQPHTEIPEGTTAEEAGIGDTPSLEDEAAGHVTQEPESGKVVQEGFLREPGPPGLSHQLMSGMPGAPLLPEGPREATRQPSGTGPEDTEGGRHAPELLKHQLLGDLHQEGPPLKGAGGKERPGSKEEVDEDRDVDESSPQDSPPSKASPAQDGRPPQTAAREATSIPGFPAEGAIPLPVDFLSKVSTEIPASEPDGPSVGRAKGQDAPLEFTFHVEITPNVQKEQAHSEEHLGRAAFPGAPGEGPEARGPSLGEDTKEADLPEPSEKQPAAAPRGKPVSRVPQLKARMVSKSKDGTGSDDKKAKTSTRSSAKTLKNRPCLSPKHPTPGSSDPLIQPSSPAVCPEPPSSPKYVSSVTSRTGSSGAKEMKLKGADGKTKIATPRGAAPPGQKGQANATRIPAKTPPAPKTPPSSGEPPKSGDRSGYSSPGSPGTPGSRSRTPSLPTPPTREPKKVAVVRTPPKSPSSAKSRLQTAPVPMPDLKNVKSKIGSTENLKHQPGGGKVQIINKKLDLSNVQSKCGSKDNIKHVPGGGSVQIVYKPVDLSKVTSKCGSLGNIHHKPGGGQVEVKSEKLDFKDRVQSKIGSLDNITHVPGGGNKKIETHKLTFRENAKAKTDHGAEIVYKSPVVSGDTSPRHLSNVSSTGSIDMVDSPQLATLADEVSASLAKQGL
# Test: qHTS for Inhibitors of Tau Fibril Formation, Thioflavin T Binding; note: nearly all actives have a fitted effect of over 55% in size
# Settings: recombinant tau K18 P301L (four-repeat tau fragment), heparin-induced fibrillization, ThT fluorescence; series mostly up to 57.4 µM; activity, negative = inhibition: at the top concentration
# Procedure, shortened: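 Heparin-induced fibrillization of the P301L-mutant K18 repeat-domain fragment of human tau was followed by ThT binding in quantitative high-throughput format.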
# % is set by controls: 0 for no effect and ±100 for the full control effect; potency is the fitted concentration of half-maximal effect; tags give direction and shape of the fitted curve.
Compound,Potency,"activity, negative = inhibition"
Cc1cccc(-c2nc3c4ccccc4n(CC(=O)Nc4cccc(F)c4)c(=O)n3n2)c1,"inconclusive: 44.7 µM [inhibitor, single point]",
CCOC(=O)N/N=C\c1ccc([N+](=O)[O-])o1,,inactive: -0.862%
COc1ccc(C2C(C(=O)Nc3cccnc3)=C(C)Nc3nc(-c4cccs4)nn32)cc1OC (stereo not drawn),,inactive: -2.71%
CC1CN(CC(=O)Nc2ccccc2Sc2ccccc2)CC(C)O1 (stereo not drawn),"inconclusive: 31.6 µM [inhibitor, single point]",
O=C(N/N=C/c1ccccc1)c1n[nH]c2c1CCCC2,"inconclusive: 20 µM [inhibitor, single point]",
COc1ccc(O[C@H]2C=C[C@@H](c3ccccc3)O[C@H]2COC(=O)CC/C(C)=N\O[C@@H](C)c2cn([C@H]3COC[C@H]3O)nn2)cc1,,inactive: -9.12% [at 11.5 µM]
Cn1cccc1CC(=O)N/N=C/c1ccc(C(C)(C)C)cc1,"inconclusive: 25.1 µM [inhibitor, partial curve, poor fit]",
COc1ccc(O)c(C2(O)C(=O)c3ccccc3C2=O)c1,,inactive: -0.742%
O=C(c1ccco1)N1CCN(S(=O)(=O)c2ccccc2[N+](=O)[O-])CC1,,inactive: 4.16%
Cc1ccccc1OCC(=O)Nc1ccc2c(c1)C(=O)c1ccccc1C2=O,,inactive: -24%
N#C/C(=C\c1ccc(Cl)c([N+](=O)[O-])c1)c1ccccn1,"inconclusive: 6.31 µM [inhibitor, partial curve]",
CCc1nn2c(=O)cc(COC(=O)c3cccc(NC(=O)COc4ccccc4F)c3)nc2s1,"inconclusive: 0.501 µM [inhibitor, full curve, poor fit]",
O=[N+]([O-])c1ccc(N2CCN(S(=O)(=O)c3ccccc3)CC2)cc1NCCN1CCOCC1,"inconclusive: 17.8 µM [inhibitor, partial curve]",
COc1ccc(Br)cc1/C=c1\sc2nc(-c3ccco3)nn2c1=O,"inconclusive: 20 µM [inhibitor, single point]",
CN1CCN(C(=O)c2cnn(-c3ccccc3)c2C2CCN(C(=O)OC(C)(C)C)CC2)CC1,,inactive: -13.5%
CCc1nnc(SC(CC)C(=O)NCCOC)c2cc3occc3n12 (stereo not drawn),"inconclusive: 8.91 µM [inhibitor, partial curve, poor fit]",
Clc1ccccc1-c1nc(N/N=C/c2cccnc2)c2ccccc2n1,"inconclusive: 25.1 µM [inhibitor, single point]",
Cc1cc(=O)oc(C)c1C(=O)OCC(=O)c1ccc(Cl)c(Cl)c1,"inconclusive: 10 µM [inhibitor, partial curve]",
Cc1ccc(-n2nc3c([n+]2[O-])CCc2c-3no[n+]2[O-])cc1,,inactive: -9.97%
O=C1CCCCC1S(=O)(=O)c1ccccc1 (stereo not drawn),"inconclusive: 8.91 µM [inhibitor, single point]",
O=C(c1cccs1)[C@@H]1[C@@H]2C(=O)N(Cc3ccc4c(c3)OCO4)C(=O)[C@@H]2C2c3ccccc3C=CN21 (stereo partly drawn),active: 22.4 µM,
Fc1ccc(NCc2ccccc2-c2nnc(-c3ccccc3Cl)o2)cc1Cl,,inactive: -12%

Compound,Potency,"activity, negative = inhibition"
COc1ccc(-c2ccc(/C=C3/C(=N)N4C(C)=CSC4=NC3=O)o2)c([N+](=O)[O-])c1,active: 2.24 µM,
COc1ccc([N+](=O)[O-])cc1/C=N/NC(=O)Cc1ccccc1,,inactive: 5.07%
CN1/C(=C\C(=O)C[n+]2ccc(C(=O)c3ccccc3)cc2)C(C)(C)c2ccccc21,"inconclusive: 14.1 µM [inhibitor, partial curve]",
COc1cc(C)ccc1OCCSc1nc2ccc(NC(=O)c3ccccc3F)cc2s1,"inconclusive: 0.447 µM [inhibitor, full curve]",
CSc1ccc(CNc2ccc(C)cc2)cc1,"inconclusive: 17.8 µM [inhibitor, partial curve]",
O=C(CCl)Nc1ccccc1Sc1ccccc1,,inactive: -9.56%
CNc1nnc(-c2ccc(OC)cc2)s1,"inconclusive: 22.4 µM [inhibitor, single point]",
CC(=O)Nc1sc2c(c1C(c1ccc(F)cc1)N1CCOCC1)CCCC2 (stereo not drawn),"inconclusive: 31.6 µM [inhibitor, single point]",
Cc1ccc(NC(=S)c2nc3ccccc3s2)cc1,"inconclusive: 4.47 µM [inhibitor, partial curve]",
CCn1cc(S(=O)(=O)c2cc(C)cc(C)c2)c(=O)c2cc(F)c(N3CCN(c4ccccc4)CC3)cc21,,inactive: -12.6%
CC1=NN(c2ccc(N)cc2)C(=O)C1,"inconclusive: 15.8 µM [inhibitor, partial curve]",
CCCCn1c(C)cc(C)c(S(=O)(=O)c2ccccc2C)c1=O,"inconclusive: 39.8 µM [inhibitor, single point]",
CC(C)C[C@@H](CC(=O)N[C@@H](CCCN)CC(=O)N[C@@H]1CCNC[C@H]1C(=O)N[C@H](CC(=O)N[C@@H](CCC(=O)O)CC(=O)O)Cc1c[nH]c2ccccc12)NC(=O)[C@@H]1CCCC[C@H]1N,,inactive: -12.4%
CCCC(c1nnnn1CC(=O)OCC)N(Cc1cc2c(C)cc(C)cc2[nH]c1=O)C1CCCC1 (stereo not drawn),"inconclusive: 7.94 µM [inhibitor, partial curve]",
Cc1ccccc1C1C(C#N)=C2N=C(N)c3c(sc4c3CCCCC4)N2C2=C1C(=O)CCC2 (stereo not drawn),"inconclusive: 14.1 µM [inhibitor, partial curve]",
CC1(C)CC(=O)C(C(c2ccccc2F)C2C(=O)CC(C)(C)CC2=O)C(=O)C1,"inconclusive: 7.94 µM [inhibitor, partial curve]",
Cc1nn2c(-c3cccc(NC(=O)c4ccco4)c3)nnc2c2ccccc12,"inconclusive: 14.1 µM [inhibitor, partial curve]",
COc1ccc(-c2ccc(/C=N/NC(=O)c3cccnc3)o2)c([N+](=O)[O-])c1,active: 2.82 µM,
COc1ccc(/C=N/Nc2ccccn2)cc1OC,"inconclusive: 17.8 µM [inhibitor, partial curve]",
OC(C#CCCN1CCCCC1)(c1ccccc1)C1CCCCC1 (stereo not drawn),"inconclusive: 5.01 µM [activator, single point]",
CC(=O)OCC1(C)CN(c2ccccc2)N(C(=O)c2ccc(C(C)(C)C)cc2)C1=O (stereo not drawn),"inconclusive: 25.1 µM [inhibitor, single point]",
